Data published in paper PMC12040169 (PLOS Biology, 2025).
The list shows a part of the results.

Each compound was assayed on T1, C. trachomatis L2/434/Bu expressing GFP (CTL2-GFP). Conditions: total inclusion area; 28.5 h, 10 µM; inhibitor.
T1 construct: L2/434/Bu GFP intracellular growth in HeLa cells
Set-up: species or system HeLa; C. trachomatis total inclusion area by high-content imaging, normalised to DMSO
How it was run: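 Following bulk GFP and resorufin fluorescence reads, infected cells were fixed, Hoechst-stained and imaged on a high-content platform. Inclusion total area and number per well served as growth proxies; nuclei counts indicated host viability. MICs were derived as for the fluorescence assay.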

Question: `CNC(=S)Nc1ncn(Cc2cccc(F)c2)n1` [CBK288368] was tested. Which “% of control remaining” value did it give?
Answer: The value was 68.382.

Question: Which “% of control remaining” value does the source give for `Nc1ccccc1C(=O)NCc1ccncc1` [CBK057024] here?
Answer: The value was 82.1001.

Question: With `O=[N+]([O-])c1ccccc1OCCCn1c2ccccc2c2ccccc21` [CBK264799] as the compound, how does the “% of control remaining” value read?
Answer: Its value is 99.7779.

Question: How did the “% of control remaining” value turn out when `O=C(CCSc1ccc(Cl)cc1)NCCc1ccccc1` [CBK263800] was run?
Answer: The value was 109.306.

Question: With `COc1ccc2[nH]cc(CCNC(=O)/C=C/c3ccc(C(C)C)cc3)c2c1` [CBK149639] as the compound, how does the “% of control remaining” value read?
Answer: Its value is 50.917.

Question: `Cc1nn(C)cc1CN(Cc1ccc(F)cc1)CC1CCCO1` (centres unmarked) [CBK282472] was tested. Which “% of control remaining” value did it give?
Answer: Its value is 122.201.

Question: With `Clc1ccc(OCCOc2nccnc2N2CCNCC2)cn1` [CBK014049G] as the compound, how does the “% of control remaining” value read?
Answer: The value was 58.3469.

Question: With `COc1ccc([C@@]23CC[C@@H](NC(=O)c4ccc(-c5csnn5)cc4)C[C@@H]2N(C)CC3)cc1OC` [CBK074256T] as the compound, how does the “% of control remaining” value read?
Answer: The value was 113.795.

Question: How did the “% of control remaining” value turn out when `Cn1cc(C(=O)N2CCCC(c3cc4ccccc4cn3)C2)cn1` (centres unmarked) [CBK285155] was run?
Answer: The value was 66.3916.

Question: `COc1cccc2c3c([nH]c12)C1(CCN(CCc2scnc2C)CC1)NCC3` [CBK040058] was tested. Which “% of control remaining” value did it give?
Answer: Its value is 74.4078.

Question: For `Cc1ccc(COC(CN2CCCCCC2)CN2CCCCCC2)cc1` [CBK278236C], which “% of control remaining” value is on record?
Answer: The value was 65.7658.

Question: For `COc1ccc(-c2cc(=O)[nH]c(SCC(=O)Nc3ccc(C)cc3)n2)cc1` [CBK091867], which “% of control remaining” value is on record?
Answer: The value was 102.716.

Question: How did the “% of control remaining” value turn out when `CC(=O)Nc1ccc(S(=O)(=O)Nc2cccc(-c3cn4cccnc4n3)c2)cc1` [CBK269125] was run?
Answer: Its value is 91.1586.

Question: For `O=C1CC(Cl)Sc2sc3ccccc3c21` (centres unmarked) [CBK006551], which “% of control remaining” value is on record?
Answer: The value was 19.6914.

Question: Which “% of control remaining” value does the source give for `COc1ccc([N+](=O)[O-])c(Sc2cccs2)n1` [CBK002625] here?
Answer: Its value is 94.6023.

Question: Which “% of control remaining” value does the source give for `COc1cc(-c2cnc(N)c(N3CCC[C@@H]3CO)n2)cc(OC)c1OC` [CBK063478] here?
Answer: Its value is 86.5249.

Question: Which “% of control remaining” value does the source give for `O=C1N=C(Nc2cccc(C(=O)O)c2)S/C1=C/c1cccc(O)c1` [CBK264984] here?
Answer: Its value is 100.054.

Question: Which “% of control remaining” value does the source give for `O=C(Cc1cccnc1)N1CCC(O)(c2cccc(F)c2)CC1` [CBK283537] here?
Answer: The value was 83.6084.

Question: Which “% of control remaining” value does the source give for `CC(=C\C(=O)O)/C(=C/c1ccncc1)C(=O)O` [CBK278265N] here?
Answer: Its value is 81.7939.

Question: Which “% of control remaining” value does the source give for `Cc1cnc2[nH]c(C3CCCN(C(=O)c4cccnc4)C3)cc2c1` (centres unmarked) [CBK285168] here?
Answer: Its value is 90.981.

Question: How did the “% of control remaining” value turn out when `O=C(Nc1ccc(F)cc1)c1cccc(NS(=O)(=O)c2cc(Cl)sc2Cl)c1` [CBK038980] was run?
Answer: The value was 87.8572.

Question: With `O=C(Nc1cc(Br)ccc1O)c1cnn2c(C(F)(F)F)cc(-c3cccs3)nc12` [CBK268190] as the compound, how does the “% of control remaining” value read?
Answer: Its value is 90.3105.

Question: With `Cc1c(C(=O)Nc2ccncc2)nnn1-c1cccc(C(F)(F)F)c1` [CBK107390] as the compound, how does the “% of control remaining” value read?
Answer: Its value is 57.5576.
